Results published in PubChem BioAssay (NCI).
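Briefly, cells in 96-well plates were exposed to five compound concentrations for 48 h, and endpoints were estimated by linear interpolation. At the GI50, growth is halved. TGI marks complete inhibition of growth.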

Tested on: NCI-H322M lung
Experiment: NCI-60 cell line screen, 48 h

Structure (SMILES): O=C1Nc2cc(-c3ccc(NS(=O)(=O)c4ccc(C(F)(F)F)cc4)cc3)ccc2/C1=C/c1ccc[nH]1
- GI50: 1.32 µM
- TGI: 6.64 µM

Structure (SMILES): O=C1Nc2ccc(Cl)cc2/C1=C/c1ccc(OCc2ccc(Br)cc2F)cc1
- GI50: 3.8 µM
- TGI: 21 µM
